# Experimental data taken from PubChem BioAssay AID686978 (National Center for Advancing Translational Sciences (NCATS), 2013).
# Where “and” joins values, the source holds several entries; their conditions need not be identical. Identical values can stand only once. In all, about 420,000 compounds went through this assay and about 64,000 (15%) were called active. Inconclusive means that the source gave no clear call. Such entries were picked first, then a sample of the others. Calls come from the whole dose curve; as a rule, active = well fitted inhibition curve with a large enough effect; inconclusive = small, poorly fitted or top-dose-only effect; inactive = flat fitted curve, though single readings scatter. Where the call is inconclusive, the potency comes from a doubtful curve fit.
# Assay: qHTS for Inhibitors of human tyrosyl-DNA phosphodiesterase 1 (TDP1): qHTS in cells in absence of CPT; note: nearly all actives have a fitted effect of over 55% in size
# Settings: DT40 Tdp1-/- hTDP1 cells, no CPT, ATP luminescence, 48 h; activity change, negative = growth inhibition: at 46.2 µM (top of the series)
# In short: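 DT40 Tdp1-/-;hTDP1 cells, no CPT (DMSO vehicle only), 400 cells/well; compounds pin-transferred; ≥48 hr, 37 °C; CellTiter-Glo 30 min RT dark, luminescence read.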
# % is set by controls: 0 for no effect and ±100 for the full control effect; potency is the fitted concentration of half-maximal effect; tags give direction and shape of the fitted curve.
Structure (SMILES),Potency,"activity change, negative = growth inhibition"
CC(=O)c1ccccc1OCc1ccc(C(=O)c2ccccc2)cc1,active: 16.4 µM,–
O=C(NS(=O)(=O)N1CCCC1)C1=C(N2CCCC2)COC1=O,–,inactive: 11.3%
O=C(CSc1nnc(-c2cccc(Br)c2)o1)N1CCNC1=O,–,inactive: -0.0509%
CCCOc1cccn2c(N(C=O)Cc3ccc(OC)cc3)c(CC)nc12,"inconclusive: 18.4 µM [inhibitor, partial curve]",–
CC(C)CC(NC(N)=O)C(=O)OCC(=O)Nc1ccc(OC(F)F)cc1 (stereo not given),"inconclusive: 16.4 µM [inhibitor, partial curve]",–
Cc1ccc(SCCNC(=S)Nc2cc(C)cc(C)c2)cc1,"inconclusive: 29.1 µM [inhibitor, single point]",–
Cc1ccc2nc(NC(=O)C3CCN(C(=O)c4ccc(F)cc4)CC3)sc2c1,"inconclusive: 23.1 µM [inhibitor, single point]",–
COc1ccc(C2SCCN2C(=S)Nc2cccc(Cl)c2)cc1 (stereo not given),active: 16.4 µM,–
COc1ccc(S(=O)(=O)N2CCCN(CC(=O)Nc3ccc(OC)c(Cl)c3)CC2)cc1,"inconclusive: 25.9 µM [inhibitor, single point]",–
CC(/C=N/n1c(-c2ccco2)n[nH]c1=S)=C\c1ccccc1,"inconclusive: 29.1 µM [inhibitor, single point]",–
CSc1cccc(NC(=O)CCCn2c(=O)c3cccn3c3cccnc32)c1,active: 20.6 µM,–
CCc1cc(C(=O)NC2CCCN(Cc3ccccc3F)C2)n(C)n1 (stereo not given),active: 9.2 µM,–
CN(CCc1ccccc1)C(=O)c1cccc(NC(=O)Cc2cccc(NC(=O)C3CCCN(S(=O)(=O)c4cccc([N+](=O)[O-])c4)C3)c2)c1 (stereo not given),"inconclusive: 18.4 µM [inhibitor, single point]",–
Cc1cccc(CNC(=O)CS(=O)(=O)c2cccc3nsnc23)c1,–,inactive: 8.54%
CCOC(=O)[C@H]1[C@H]2COc3ccc(Cl)cc3[C@@H]2N2C(=O)c3ccccc3NC(=O)[C@@]12C,"inconclusive: 25.9 µM [inhibitor, single point]",–
COc1ccc(S(=O)(=O)Nc2ccc3c(c2)C(=O)N([C@H](C)CO)C[C@H](C)[C@@H](CN(C)S(=O)(=O)c2cn(C)cn2)OCCCC[C@H](C)O3)cc1,–,inconclusive: -31.1% [inhibitor]
Cc1ccc(C(CC(=O)N2CCNCC2)c2ccccc2)c(O)c1C (stereo not given),"inconclusive: 29.1 µM [inhibitor, single point]",–
COc1cccc(NC(=O)CN(C)C(=O)c2oc3c(ccc4ccccc43)c2C)c1,"inconclusive: 29.1 µM [inhibitor, single point]",–

Structure (SMILES),Potency,"activity change, negative = growth inhibition"
COc1ccc(Br)cc1CNC(=O)Cn1nc(C)n2cccc2c1=O,"inconclusive: 29.1 µM [inhibitor, single point]",–
CCOC(=O)c1c(C)[nH]c(C)c1S(=O)(=O)N1CCCC(C(=O)N2CCN(c3cccc(C)c3C)CC2)C1 (stereo not given),"inconclusive: 29.1 µM [inhibitor, single point]",–
COc1ccc(N2C(S)=C(C#N)C(=O)NC23CCCCC3)cc1,–,inconclusive: -36.2% [inhibitor]
Cc1nn(C)cc1C(=O)/C=C/c1ccc([N+](=O)[O-])cc1,active: 18.4 µM,–
CN1/C(=C/C=N/NC(=O)c2ccc([N+](=O)[O-])cc2)C(C)(C)c2ccccc21,–,inactive: 11%
CCc1nnc(NC(=O)CC23CC4CC(CC(Br)(C4)C2)C3)s1,–,inactive: -2.38%
COc1cc(F)ccc1-c1cc(C(=O)Nc2ccc(NC(C)=O)cc2)[nH]n1,"inconclusive: 29.1 µM [inhibitor, single point]",–
COCCNC(=O)c1cnc2sc(N3CCC(C)CC3)nn2c1=O,–,inactive: -5.27%
O=C(Nc1ccc(OC(F)(F)F)cc1)Nc1cccnc1,"inconclusive: 23.1 µM [inhibitor, partial curve]",–
CCSc1nc(-c2ccco2)ccc1C#N,"inconclusive: 29.1 µM [inhibitor, single point]",–
COc1ccccc1OCC(=O)Nc1sc2c(c1C(=O)NCC1CCCO1)CCC2 (stereo not given),"inconclusive: 29.1 µM [inhibitor, single point]",–
Cn1c(SCC(=O)NC2CCCCC2)nnc1-c1cc2ccccc2o1,–,inactive: -21.8%
Cc1ccccc1Nc1nc(-c2cccnc2)nc2ccccc12,active: 20.6 µM,–
O=C(Nc1ccc(Cl)cc1)C1CCCN(C2=NS(=O)(=O)c3ccccc32)C1 (stereo not given),"inconclusive: 14.6 µM [inhibitor, partial curve]",–
COC(=O)C1=C(C)NC(C)=C(C(=O)OC(C)C)C1c1cccc2nonc12 (stereo not given),"inactive and inconclusive: 26.6 µM [inhibitor, partial curve, poor fit] and inconclusive: 23.1 µM [inhibitor, single point]",–
Cc1ccc(S(=O)(=O)N2C[C@@H]3[C@H]4CC[C@H](C4)[C@@H]3[C@@H](C)[C@@H]2c2ccn(Cc3ccccc3)c2)cc1,"inconclusive: 20.6 µM [inhibitor, single point]",–
CC1CN(C(=S)Nc2ccccc2)N(c2ccccc2)C1 (stereo not given),–,inactive: 19.6%
